Experimental data as given in PubChem BioAssay AID894 (National Center for Advancing Translational Sciences (NCATS), 2007).
About 6,500 (4.3%) of roughly 150,000 compounds were called active. Inconclusive results, whose numbers are uncertain, are shown with a selection of clear calls. The call rests on the fitted dose curve; in most records, active means well fitted inhibition curve with a large enough effect (not every such curve was filed as active); inconclusive means small, poorly fitted or top-dose-only effect, or another doubt; inactive means no such curve, though single readings can be large or run the other way. Potencies of inconclusive entries are left out as doubtful fits.

Target: 15-hydroxyprostaglandin dehydrogenase [NAD(+)] (Homo sapiens) (UniProt P15428)
UniProt P15428, sequence (P15428 whole entry, looked up): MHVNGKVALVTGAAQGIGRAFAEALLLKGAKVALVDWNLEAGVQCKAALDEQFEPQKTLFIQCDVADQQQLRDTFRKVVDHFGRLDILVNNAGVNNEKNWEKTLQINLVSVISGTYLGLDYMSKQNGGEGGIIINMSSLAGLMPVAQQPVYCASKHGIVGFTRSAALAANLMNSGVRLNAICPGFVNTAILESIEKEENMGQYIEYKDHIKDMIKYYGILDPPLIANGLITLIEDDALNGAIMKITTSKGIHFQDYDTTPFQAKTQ
Experiment: qHTS Assay for Inhibitors of HPGD (15-Hydroxyprostaglandin Dehydrogenase)
Details: purified HPGD, NADH fluorescence kinetic, PGE2 substrate; activity change, negative = inhibition: hits give low values
In short: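 20 nM HPGD preincubated 15 min at room temperature with compound in 50 mM Tris-HCl pH 8, 0.01% Tween 20. Started with 1 mM NAD+ and 30 uM prostaglandin E2; NADH fluorescence (360/450 nm) read 5 times over 30-s intervals, last minus first.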
On the % scale 0 is the no-effect control and ±100 the full control effect; potency means the concentration at half of the fitted maximal effect; tags describe the fitted curve by direction and shape.

With `CCc1c(C)sc(NC(=O)c2ccccc2[N+](=O)[O-])c1C(N)=O` as the compound, how does the activity change, negative = inhibition read?
Its activity change, negative = inhibition is inactive: -11.9%.

For `Cc1cc(-c2n[nH]c(=S)n2/N=C/c2sccc2C)n[nH]1`, which Potency is on record?
Its Potency is active: 22.4 µM.

Which Potency does the source give for `CCC(CO)Nc1ncnc2c1cnn2-c1ccc(Cl)cc1` (stereo not drawn) here?
Its Potency is inconclusive [inhibitor, partial curve].

Which Potency does the source give for `CCSc1nc(-c2ccc(OC)cc2)cc(-c2ccccc2)c1C#N` here?
Its Potency is inconclusive [inhibitor, single point].

Which Potency does the source give for `COc1cc2c(cc1NC(=O)CSCC(=O)O)oc1ccccc12` here?
The Potency was inconclusive [inhibitor, partial curve].

With `CN(c1cccc(Cl)c1)S(=O)(=O)c1cccc(C(=O)Nc2nc3ccccc3[nH]2)c1` as the compound, how does the activity change, negative = inhibition read?
The activity change, negative = inhibition was inactive: -29.3%.

With `CCC(C)NC(=S)N1CCN(C(c2ccccc2)c2ccccc2)CC1` (stereo not drawn) as the compound, how does the activity change, negative = inhibition read?
The activity change, negative = inhibition was inactive: -14.7%.

Which Potency does the source give for `COc1ccc(CN(Cc2cc3cc(OC)c(OC)cc3[nH]c2=O)C(=O)NC2CCCCC2)cc1` here?
Its Potency is inconclusive [inhibitor, single point].

Which Potency does the source give for `CCOc1ncccc1C(=O)OCC(=O)N1CCN(S(=O)(=O)c2ccc(Cl)cc2)CC1` here?
Its Potency is inconclusive [inhibitor, single point].

Which Potency does the source give for `COc1ccc2c(c1)-c1nc(/N=C/c3c(O)ccc4ccccc34)sc1CC2` here?
The Potency was inconclusive [inhibitor, single point].

With `O=C(O)c1ccccc1C(=O)NCc1ccc(F)cc1` as the compound, how does the activity change, negative = inhibition read?
The activity change, negative = inhibition was inactive: -7.79%.

For `Cc1ccc2c(N)c(C)ccc2c1`, which Potency is on record?
Its Potency is inconclusive [inhibitor, partial curve].

With `CCOC(=O)c1c(C)oc2ccc(NS(=O)(=O)c3ccc4c5c(cccc35)C(=O)N4)cc12` as the compound, how does the Potency read?
The Potency was inconclusive [inhibitor, partial curve].

How did the activity change, negative = inhibition turn out when `O=C(NC1CCCCC1)NC1(C(=O)NCCCN2CCOCC2)CCCCC1` was run?
Its activity change, negative = inhibition is inactive: -3.77%.

For `O=C(O)c1cc(-c2ccc(/C=N/Nc3ccc(Cl)cc3)o2)ccc1Cl`, which Potency is on record?
The Potency was inconclusive [inhibitor, partial curve, poor fit].

How did the Potency turn out when `CN(C1CCCCC1)S(=O)(=O)Cc1ccccc1` was run?
Its Potency is active: 17.8 µM.

`Cc1cc(=O)n2c3c(cccc13)CCC2` was tested. Which Potency did it give?
Its Potency is inconclusive [inhibitor, partial curve].

With `CC(=O)Cc1nsc(Nc2ccc3c(c2)OCCO3)n1` as the compound, how does the Potency read?
The Potency was active: 20 µM.

For `Cc1ccc(S(=O)(=O)N2CCN(C(=O)CSc3ncc(C(F)(F)F)cc3Cl)CC2)cc1`, which activity change, negative = inhibition is on record?
Its activity change, negative = inhibition is inactive: -12.2%.

For `Cc1ccc(C2=N/C(=C\N3CCCCC3)C(=O)O2)cc1`, which Potency is on record?
The Potency was inconclusive [inhibitor, partial curve].

`CCOC(=O)CSc1nc2c(sc(=S)n2-c2ccccc2)c(=O)[nH]1` was tested. Which Potency did it give?
The Potency was active: 20 µM.

With `COC(=O)C1=C(C)NC(C)=C(C(=O)OC)C1c1ccc(OC(=O)c2ccco2)cc1` as the compound, how does the Potency read?
Its Potency is inconclusive [inhibitor, partial curve].

For `CCC(Sc1nc2ccccc2[nH]1)C(=O)Nc1cc(C)on1` (stereo not drawn), which activity change, negative = inhibition is on record?
Its activity change, negative = inhibition is inactive: -6.15%.

How did the activity change, negative = inhibition turn out when `CCOC(=O)C1CCCN(C(=O)c2ccc([N+](=O)[O-])cc2)C1` (stereo not drawn) was run?
Its activity change, negative = inhibition is inactive: -27.6%.

How did the Potency turn out when `CCOc1cc2[nH]c(=O)n(CCCCC(=O)N3CCCCCC3)c(=O)c2cc1OCC` was run?
Its Potency is inconclusive [inhibitor, partial curve].

`O=C(NCc1ccco1)c1cc2c(s1)CCCCC2` was tested. Which Potency did it give?
Its Potency is active: 15.8 µM.

How did the Potency turn out when `C#CCn1c(=NC(=O)c2ccc(S(=O)(=O)N3CCc4ccccc4C3)cc2)sc2cc(S(N)(=O)=O)ccc21` was run?
Its Potency is inconclusive [inhibitor, partial curve].

`CCOC(=O)c1c(-c2ccc(F)cc2)csc1NC(=O)c1c(-c2ccccc2)noc1C` was tested. Which Potency did it give?
The Potency was inconclusive [inhibitor, partial curve].

How did the Potency turn out when `O=C(Nc1ccccc1)c1nnsc1S(=O)(=O)c1ccc(Cl)cc1` was run?
Its Potency is active: 11.2 µM.

`COC(=O)Nc1ccc(C)cc1NC(=O)OC` was tested. Which Potency did it give?
The Potency was inconclusive [inhibitor, single point].

Which Potency does the source give for `CC(=O)CCc1oc2ccc(NC(C)=O)cc2c1-c1ccc(C)o1` here?
Its Potency is inconclusive [inhibitor, single point].

`O=C1CCCC(=O)N1c1ccc(N2CCN(c3ccc([N+](=O)[O-])cc3)CC2)c([N+](=O)[O-])c1` was tested. Which activity change, negative = inhibition did it give?
The activity change, negative = inhibition was inactive: -13.9%.

How did the activity change, negative = inhibition turn out when `S=C(NCCc1ccc(Cl)cc1)Nc1ccc(Cl)cc1Cl` was run?
Its activity change, negative = inhibition is inactive: -10.5%.

With `CCOC(=O)c1sc(=S)n(-c2ccc(C)cc2)c1SC` as the compound, how does the Potency read?
Its Potency is inconclusive [inhibitor, partial curve].

Which Potency does the source give for `CCOC(=O)c1cc2c(n(-c3ccc(C)cc3)c1=O)CCCC2=O` here?
Its Potency is inconclusive [inhibitor, partial curve].

For `Cc1ccc(C(=O)O)cc1-c1ccc(/C=C2/NC(=O)N(c3ccccc3)C2=O)o1`, which Potency is on record?
The Potency was inconclusive [inhibitor, partial curve].

How did the Potency turn out when `COc1ccc(-c2cc3nc(C)cc(C)n3n2)cc1` was run?
The Potency was inconclusive [inhibitor, partial curve].

`COc1cc(OC)cc(-c2nnc(SCc3cccc(C(=O)O)c3)o2)c1` was tested. Which Potency did it give?
The Potency was active: 11.2 µM.

Which Potency does the source give for `Cc1ccc(SCc2nc3ccccc3[nH]2)cc1` here?
The Potency was inconclusive [inhibitor, single point].

With `Cc1cccc(NS(=O)(=O)c2ccc(Br)s2)n1` as the compound, how does the activity change, negative = inhibition read?
The activity change, negative = inhibition was inactive: -12.3%.

`COc1ccc(-c2cc(-c3ccccc3)n3ncnc3n2)cc1` was tested. Which Potency did it give?
The Potency was inconclusive [inhibitor, partial curve].

With `CCN(CC)c1ccc(/C=C(\C#N)C(=O)NCc2ccco2)cc1` as the compound, how does the activity change, negative = inhibition read?
Its activity change, negative = inhibition is inactive: -13.7%.

`CCOc1ccccc1OCCCCN1CCCC1` was tested. Which activity change, negative = inhibition did it give?
Its activity change, negative = inhibition is inactive: -7.61%.

For `N#Cc1nc(-c2cccs2)oc1NCc1ccc(Cl)cc1`, which Potency is on record?
Its Potency is inconclusive [inhibitor, partial curve].

How did the Potency turn out when `COC(=O)c1oc2c(c1C)C1(CCC2)SCCS1` was run?
The Potency was inconclusive [inhibitor, single point].

With `O=c1cc(CSc2nnc(-c3ccccc3)o2)c2ccccc2[nH]1` as the compound, how does the Potency read?
Its Potency is active: 7.94 µM.

How did the Potency turn out when `Cc1ccc(Nc2nc(-c3sc(NC(=O)c4ccccc4)nc3C)cs2)cc1` was run?
Its Potency is inconclusive [inhibitor, single point].

For `Cc1ccc(CNC(=O)c2cc3c(=O)n4ccccc4nc3n(Cc3ccco3)c2=N)cc1`, which Potency is on record?
Its Potency is inconclusive [inhibitor, partial curve].

How did the Potency turn out when `CCOC(=O)c1cnn2c(C(F)(F)F)cc(-c3ccccc3)nc12` was run?
Its Potency is inconclusive [inhibitor, single point].

`Nc1ccc(-c2nc3ccccc3[nH]2)cc1` was tested. Which Potency did it give?
Its Potency is inconclusive [inhibitor, partial curve].

With `CSc1ccccc1C(=O)NCCSC(C)(C)C` as the compound, how does the Potency read?
The Potency was active: 25.1 µM.

For `COc1ccc(C2=NOC(C(=O)Nc3ccc(C(C)=O)cc3)C2)cc1OC` (stereo not drawn), which Potency is on record?
Its Potency is inconclusive [inhibitor, partial curve].

`COCC(O)CSc1nc(C)[nH]c1[N+](=O)[O-]` (stereo not drawn) was tested. Which activity change, negative = inhibition did it give?
The activity change, negative = inhibition was inactive: -17.4%.

For `CCCCS(=O)(=O)c1sc2nc3c(cc2c1N)CCCC3`, which Potency is on record?
Its Potency is inconclusive [inhibitor, partial curve].

With `COc1ccc(-c2nc(CSCC(=O)NCc3ccc4c(c3)OCO4)c(C)o2)cc1OC` as the compound, how does the Potency read?
The Potency was inconclusive [inhibitor, partial curve].

How did the Potency turn out when `COc1ccc(Nc2cccc(Cl)c2)c(C(=O)O)c1` was run?
The Potency was inconclusive [inhibitor, single point].

How did the Potency turn out when `NCCNC(=S)S` was run?
Its Potency is active: 3.55 µM.

`N#Cc1c(N2CCCCC2)nc(N)c2c(N)nc3c(c12)CC(c1ccccc1)O3` (stereo not drawn) was tested. Which Potency did it give?
Its Potency is inconclusive [inhibitor, partial curve].

How did the activity change, negative = inhibition turn out when `CCCCc1nc2c(c3c1C[C@H](C)OC3)CN(C(=O)c1cccnc1)CC2` was run?
The activity change, negative = inhibition was inactive: -18.5%.

How did the Potency turn out when `Cc1cccc(N2CCN(c3nc4ccccc4n4cnnc34)CC2)c1C` was run?
The Potency was inconclusive [inhibitor, partial curve].

For `O=S(=O)(c1cccs1)n1nnc2ccccc21`, which Potency is on record?
The Potency was inconclusive [inhibitor, partial curve].

How did the Potency turn out when `COCCN(C(C)=O)c1nnc(-c2ccccn2)s1` was run?
Its Potency is inconclusive [inhibitor, partial curve].

`CC1(C(=O)N/N=C/c2ccc([N+](=O)[O-])o2)CC1(Br)Br` (stereo not drawn) was tested. Which activity change, negative = inhibition did it give?
Its activity change, negative = inhibition is inactive: -4.99%.

With `O=C(/C=C/c1ccccc1)Nc1nnc(SCC(=O)c2ccc3ccccc3c2)s1` as the compound, how does the Potency read?
The Potency was inconclusive [inhibitor, partial curve].

Which Potency does the source give for `CCCCc1n[nH]c2c1/C(=N/O)CC(c1ccccc1)C2` (stereo not drawn) here?
Its Potency is active: 2.51 µM.

`CC1CCCN(C(=O)CSc2nnc(-c3c[nH]c4ccccc34)o2)C1` (stereo not drawn) was tested. Which Potency did it give?
Its Potency is active: 15.8 µM.

For `O=C1N=C(N2CCc3ccccc3C2)S/C1=C\c1cccc(O)c1`, which Potency is on record?
The Potency was active: 5.01 µM.

With `Cc1nc(NC(=O)c2ccccc2)sc1Cc1ccc2c(c1)OCO2` as the compound, how does the Potency read?
Its Potency is inconclusive [inhibitor, partial curve, poor fit].

With `Cc1cc(=O)[nH]c(SCCOc2ccc3c(c2)CCC3)n1` as the compound, how does the activity change, negative = inhibition read?
Its activity change, negative = inhibition is inactive: -17.8%.

For `COc1cc(CNn2c(C)n[nH]c2=S)cc(Br)c1OCc1ccc(F)cc1`, which Potency is on record?
Its Potency is active: 15.8 µM.

How did the activity change, negative = inhibition turn out when `Cc1nc(SCC(=O)NCc2ccccc2)c2oc3ccccc3c2n1` was run?
The activity change, negative = inhibition was inactive: -1.33%.

For `COc1ccc(-c2ccc(-c3noc(-c4ccco4)n3)c(OC)n2)cc1`, which Potency is on record?
Its Potency is inconclusive [inhibitor, partial curve].

`COC(=O)c1ccccc1NC(=O)C1COc2ccccc2O1` (stereo not drawn) was tested. Which Potency did it give?
The Potency was inconclusive [inhibitor, partial curve].
